Measurements taken from PubChem BioAssay AID686978 (National Center for Advancing Translational Sciences (NCATS), 2013).
Among all 420,000 compounds or so, about 64,000 (15%) were called active. Inconclusive results, whose numbers are uncertain, are shown with a selection of clear calls. The call rests on the fitted dose curve; in most records, active means well fitted inhibition curve with a large enough effect; inconclusive means small, poorly fitted or top-dose-only effect; inactive means flat fitted curve, though single readings scatter. No potency is given beside an inconclusive call; the fits are too rough.

experiment: qHTS for Inhibitors of human tyrosyl-DNA phosphodiesterase 1 (TDP1): qHTS in cells in absence of CPT; details: DT40 Tdp1-/- hTDP1 cells, no CPT, ATP luminescence, 48 h; activity change, negative = growth inhibition: at 46.2 µM (top of the series) unless noted; further: nearly all actives have a fitted effect of over 55% in size
Outline: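 A cellular qHTS used chicken DT40 cells lacking endogenous Tdp1 but carrying stably transfected human TDP1. Compounds were applied without camptothecin, and cell growth kinetics were judged by ATP-dependent luminescence after ≥48 hr.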
On the % scale 0 is the no-effect control and ±100 the full control effect; potency means the concentration at half of the fitted maximal effect; tags describe the fitted curve by direction and shape.

SMILES | Potency | activity change, negative = growth inhibition
Cc1ccccc1S(=O)(=O)NNC(=O)C(=O)NNc1ccccn1 | active: 23.1 µM | –
CC(C)Oc1ccc(C(=O)Nc2ccc(N3CCN(C(=O)c4ccco4)CC3)cc2)cc1 | inconclusive [inhibitor, partial curve] | –
COc1ccc(CC(=O)NCCc2csc(-c3cccc(F)c3)n2)cc1OC | inconclusive [inhibitor, partial curve, poor fit] | –
Cc1cccc(C)c1OCC(O)CNC(C)C (stereo unspecified) | inactive | –
CC(=O)c1cnc2nc(SCc3ccc(C)cc3)nn2c1C | inconclusive [inhibitor, single point] | –
COc1cccc(NC(=O)C2(C)CCN2C(=O)CC2CC2)c1 (stereo unspecified) | inactive | –
Cc1ccc(-n2nnnc2Sc2nc([N+](=O)[O-])nn2C)c(C)c1 | inconclusive [inhibitor, single point] | –
C=CCn1c(SCC(=O)NCC)nc2sc3c(c2c1=O)CCC3 | inactive | –
COc1ccc(Cl)cc1NC(=O)CCNC(=O)Cn1ccc2ccccc2c1=O | inconclusive [inhibitor, single point] | –
Cn1c(=O)n(C)c2cc([N+](=O)[O-])c(N3CCN(C(=O)c4ccc(F)cc4)CC3)cc21 | inconclusive [inhibitor, single point] | –
CCOC(=O)c1ccccc1NC(=O)c1sc2ncn(CC)c(=O)c2c1C | inactive | –
S=C(NCc1ccco1)Nc1ccc(Cl)cn1 | – | inconclusive: -30.5% [inhibitor]
O=C(C1CCN(c2ncnc3c2nc2n3CCCCC2)CC1)N1CCN(c2ccccc2)CC1 | active: 20.6 µM | –
Cc1ccc(S(=O)(=O)Nc2cc3c(C(=O)OCc4ccccc4)c(C)oc3c3ccccc23)cc1 | inconclusive [inhibitor, single point] | –
O=C(C1=C(Nc2ccccc2)c2ccccc2S(=O)(=O)N1)c1ccccc1 | inconclusive [inhibitor, partial curve] | –
O=c1c(-c2ccc(F)cc2)nc2cnc(N3CCOCC3)nc2n1-c1ccccc1 | inactive | –
CC(=O)Nc1ccc(CN2C(=O)C(CCc3ccccc3)ON=C2c2cnccn2)cc1 (stereo unspecified) | inconclusive [inhibitor, single point] | –
O=S1(=O)N[C@@H](c2ccccc2)COc2cc(Br)ccc21 | inconclusive [inhibitor, partial curve] | –
O=C1CCCN1C(=O)CSc1ccc2ccccc2n1 | inactive | –
CCOc1ccc(NC(=O)NCCCN2CCN(c3ccc(OC)cc3)CC2)cc1 | inconclusive [inhibitor, partial curve] | –
O=C(c1ccc(CSc2nc3ccncc3n2Cc2ccccc2F)cc1)N1CCCCC1 | inconclusive [inhibitor, single point] | –
O=C(Nc1cc(S(=O)(=O)Nc2ccc(Cl)cc2)ccc1N1CCCCC1)c1ccc(F)cc1Cl | inconclusive [inhibitor, single point] | –
Cc1c(CCC(=O)NCCc2ccccc2F)c(=O)oc2cc(O)ccc12 | inconclusive [inhibitor, single point] | –

SMILES | Potency | activity change, negative = growth inhibition
C=CCc1ccc(O)c(-c2cc(CC=C)ccc2O)c1 | active: 20.6 µM | –
O=C(Oc1ccccc1)N1CCC2(CCCN(c3ncccn3)C2)CC1 | active: 18.4 µM | –
O=C(/C=C/c1ccc(F)cc1)NCC1Cc2cccc(-c3ncccn3)c2O1 (stereo unspecified) | active: 18.4 µM | –
Cc1ccc(CN2CC(C(=O)Nc3ccc(F)c([N+](=O)[O-])c3)CC2=O)cc1 (stereo unspecified) | inconclusive [inhibitor, single point] | –
CCn1c(N)c(C(=O)NCCOC)sc1=S | inactive | –
O=C(NCC1CCCCC1)c1cc2ccccc2cc1O | inconclusive [inhibitor, single point] | –
CC(C)(C)n1nc2c(c1NC(=O)c1cc3ccccc3o1)CSC2 | inactive | –
COC(=O)c1ccc(OCC(=O)NC2CCCCCC2)cc1 | inactive | –
CC(C)[C@H]1COCCS(=O)(=O)N1Cc1ccccc1-c1ccc(C(C)(C)C)cc1 | inconclusive [inhibitor, partial curve, poor fit] | –
COC(=O)C(C)N1C(=O)S/C(=C/c2cc(C)n(C(C)C)c2C)C1=O (stereo unspecified) | inconclusive [inhibitor, single point] | –
CCOc1ccccc1Nc1sc(C(=O)c2ccc(Cl)cc2)c(N)c1C#N | inconclusive [inhibitor, single point] | –
Cc1cccc(N2C(=O)CSC23CCCCC3)c1 | inconclusive [inhibitor, single point] | –
CCOC(=O)CN(C(=O)c1ccccc1)c1ccccc1C | inconclusive [inhibitor, partial curve] | –
CN(C)c1ccc(/C=C(\C#N)c2nc3ccccc3c(=O)[nH]2)cc1 | inactive | –
Nc1nonc1-n1nnc(C(=O)N/N=C/c2cc(Br)cs2)c1-c1ccccc1 | inconclusive [inhibitor, single point] | –
COc1ccc(/C=C/C(=O)N2CCN(S(=O)(=O)c3ccccc3Br)CC2)cc1OC | inconclusive [inhibitor, single point] | –
CCOC(=O)C(Cc1ccc(O)cc1)NC(=O)CCc1c[nH]c2ccccc12 (stereo unspecified) | inactive | –
Cn1c(Oc2cccnc2CN2CCCC2)nc2cc(-c3cccc(C(F)(F)F)c3)sc2c1=O | inconclusive [inhibitor, single point] | –
O=C(NCCc1ccccc1)c1cc(-c2ccccc2)nc2n[nH]c(-c3ccccc3)c12 | inconclusive [inhibitor, single point] | –
C=CCn1c(SCC(=O)c2ccc(Br)cc2)nnc1C(CC(C)C)NC(=O)c1cccs1 (stereo unspecified) | inconclusive [inhibitor, single point] | –
C=C(CO)C1Cc2c(ccc3c2OC2COc4cc(OC)c(OC)cc4C2C3=O)O1 (stereo unspecified) | active: 0.237 µM | –
Cc1ccc(NC(=O)CCl)c(C)c1 | active: 25.9 µM | –
C=CCn1c(C#N)c(N)sc1=N | inconclusive [inhibitor, single point] | –
